From patent US8895568B2, “Compositions comprising substituted pteridines as agrochemicals” (Dow AgroSciences LLC, priority 2009, dated 2014)
At least one read-out could not be matched to a standard name with certainty.

Experiments:
[1] = test system: Puccinia recondita tritici; experiment: Leaf Rust of Wheat (PUCCRT), foliar spray, percent disease control; format: in vivo; conditions: in vivo
Method: The activity of the compounds as effective fungicides was determined by applying the compounds to plants and observing control of fungal disease. The compounds were formulated at 200 ppm in 10 vol. % acetone plus 90 vol. % Triton X water (deionized water 99.99 wt %+0.01 wt % Triton X100), giving a “formulated test compound.” In a few cases, compounds were formulated at 75 or 8.3 ppm rather than 200 ppm in 10 vol. % acetone plus 90 vol. % Triton X water (deionized water 99.99 wt. %+0.01 wt. % Triton X100), giving a “formulated test compound.” Formulated test compounds were applied to plants using a turn table sprayer fitted with two opposing air atomization nozzles which delivered approximately 1500 L/ha of spray volume. All plants were inoculated with spores of the fungus the day after treatment, then incubated in an environment conducive to disease development. Disease severity was evaluated 4 to 15 days later, depending on the disease and the speed of disease development. The following experiments were performed in the laboratory to determine the fungicidal efficacy of the compounds of the invention. […] Each pot contained 3-8 seedlings. These plants were sprayed until wet with the formulated test compounds. On the following day, the leaves were inoculated with an aqueous spore suspension of Puccinia recondita tritici and the plants were kept in high humidity overnight to permit spores to germinate and infect the leaf. The plants were then transferred to a greenhouse until disease developed on untreated control plants. […] The effectiveness of the test compounds at controlling disease when sprayed on leaves was determined by assessing the severity of disease on treated plants, then converting the severity to percent control based on the level of disease on untreated, inoculated plants. Data are the level (in percent) at which the given disease was controlled when the given compound was applied to the foliage of the plants at 200 ppm. In a few cases (noted in the table) the compound was applied to the plants at 75 ppm or 8.3 ppm.

Leptosphaeria nodorum = experiment: Glume Blotch of Wheat (LEPTNO), foliar spray, percent disease control; format: in vivo; conditions: in vivo
Method: The activity of the compounds as effective fungicides was determined by applying the compounds to plants and observing control of fungal disease. The compounds were formulated at 200 ppm in 10 vol. % acetone plus 90 vol. % Triton X water (deionized water 99.99 wt %+0.01 wt % Triton X100), giving a “formulated test compound.” In a few cases, compounds were formulated at 75 or 8.3 ppm rather than 200 ppm in 10 vol. % acetone plus 90 vol. % Triton X water (deionized water 99.99 wt. %+0.01 wt. % Triton X100), giving a “formulated test compound.” Formulated test compounds were applied to plants using a turn table sprayer fitted with two opposing air atomization nozzles which delivered approximately 1500 L/ha of spray volume. All plants were inoculated with spores of the fungus the day after treatment, then incubated in an environment conducive to disease development. Disease severity was evaluated 4 to 15 days later, depending on the disease and the speed of disease development. The following experiments were performed in the laboratory to determine the fungicidal efficacy of the compounds of the invention. […] Each pot contained 3-20 seedlings. These plants were sprayed until wet with the formulated test compound. On the following day, the leaves were inoculated with an aqueous spore suspension of Leptosphaeria nodorum and the plants were kept in high humidity (one day in a dark dew chamber followed by four days in a lighted dew chamber) to permit spores to germinate and infect the leaf. The plants were then transferred to a greenhouse until disease developed on untreated control plants. […] The effectiveness of the test compounds at controlling disease when sprayed on leaves was determined by assessing the severity of disease on treated plants, then converting the severity to percent control based on the level of disease on untreated, inoculated plants. Data are the level (in percent) at which the given disease was controlled when the given compound was applied to the foliage of the plants at 200 ppm. In a few cases (noted in the table) the compound was applied to the plants at 75 ppm or 8.3 ppm.

Row | SMILES | PUCCRT percent control [1] | LEPTNO percent control (Leptosphaeria nodorum)
1 | N#Cc1c(Cl)cncc1Oc1ccc(CCNc2ncnc3nccnc23)cc1 [Compound 35] | *** (*** = 80-100 percent control) | * (* = 0-49 percent control)
2 | Ic1ccnc(Oc2ccc(CCNc3ncnc4nccnc34)cc2)c1 [Compound 36, N-(2-{4-[(4-iodopyridin-2-yl)oxy]phenyl}ethyl)pteridin-4-amine] | *** (*** = 80-100 percent control) | ** (** = 50-79 percent control)
3 | COc1cc(CCNc2ncnc3nccnc23)ccc1O [Compound 37] | *** (*** = 80-100 percent control) | * (* = 0-49 percent control)
4 | Cc1cnc2ncnc(NCCc3ccc(O)cc3)c2n1 [Compound 38] | * (* = 0-49 percent control) | * (* = 0-49 percent control)
5 | Cc1cccc(Oc2ccc(CCNc3ncnc4nccnc34)cc2)n1 [Compound 39] | *** (*** = 80-100 percent control) | *** (*** = 80-100 percent control)
6 | Cc1ccc(Oc2ccc(CCNc3ncnc4nccnc34)cc2)nc1 [Compound 40] | *** (*** = 80-100 percent control) | *** (*** = 80-100 percent control)
7 | Cc1cnc2ncnc(NCCc3ccc(Oc4ccc(C(F)(F)F)cn4)cc3)c2n1 [Compound 41] | *** (*** = 80-100 percent control) | *** (*** = 80-100 percent control)
8 | Cc1ccnc(Oc2ccc(CCNc3ncnc4nccnc34)cc2)c1 [Compound 42] | *** (*** = 80-100 percent control) | *** (*** = 80-100 percent control)
9 | Cc1cccnc1Oc1ccc(CCNc2ncnc3nccnc23)cc1 [Compound 43] | *** (*** = 80-100 percent control) | *** (*** = 80-100 percent control)
10 | CC(F)(F)c1ccnc(Oc2ccc(CCNc3ncnc4nccnc34)cc2)c1 [Compound 44] | *** (*** = 80-100 percent control) | *** (*** = 80-100 percent control)
11 | FC(F)(F)c1ccnc(Oc2cccc(CCNc3ncnc4nccnc34)c2)c1 [Compound 46] | *** (*** = 80-100 percent control) | *** (*** = 80-100 percent control)
12 | FC(F)(F)c1ccc(Oc2cccc(CCNc3ncnc4nccnc34)c2)nc1 [Compound 47] | *** (*** = 80-100 percent control) | *** (*** = 80-100 percent control)
13 | c1csc(Oc2ccc(CCNc3ncnc4nccnc34)cc2)n1 [Compound 48] | *** (*** = 80-100 percent control) | * (* = 0-49 percent control)
14 | COc1cc(CCNc2ncnc3nccnc23)ccc1Oc1ccc(C(F)(F)F)cn1 [Compound 49] | *** (*** = 80-100 percent control) | ** (** = 50-79 percent control)
15 | COc1cc(CCNc2ncnc3nccnc23)ccc1Oc1ccc(C#N)cn1 [Compound 50] | *** (*** = 80-100 percent control) | * (* = 0-49 percent control)
16 | COc1cc(CCNc2ncnc3nccnc23)ccc1Oc1cc(C(F)(F)F)ccn1 [Compound 51] | *** (*** = 80-100 percent control) | ** (** = 50-79 percent control)
17 | Cc1cnc2ncnc(NCCc3ccc(Oc4ccc(C#N)cn4)cc3)c2n1 [Compound 52] | *** (*** = 80-100 percent control) | *** (*** = 80-100 percent control)
18 | Cc1cnc2ncnc(NCCc3ccc(Oc4ncc(C(F)(F)F)cc4F)cc3)c2n1 [Compound 53] | *** (*** = 80-100 percent control) | *** (*** = 80-100 percent control)
19 | Fc1cc(C(F)(F)F)cnc1Oc1ccc(CCNc2ncnc3nccnc23)cc1 [Compound 54] | *** (*** = 80-100 percent control) | *** (*** = 80-100 percent control)

Row | SMILES | PUCCRT percent control [1] | LEPTNO percent control (Leptosphaeria nodorum)
20 | Cc1cnc2ncnc(NCCc3ccc(Oc4nccc(C(F)(F)F)n4)cc3)c2n1 [Compound 55] | *** (*** = 80-100 percent control) | *** (*** = 80-100 percent control)
21 | FC(F)(F)c1ccnc(Cl)c1Oc1ccc(CCNc2ncnc3nccnc23)cc1 [Compound 56] | *** (*** = 80-100 percent control) | ** (** = 50-79 percent control)
22 | COc1cc(CCNc2ncnc3nccnc23)ccc1Oc1cc(C#N)ccn1 [Compound 57] | *** (*** = 80-100 percent control) | * (* = 0-49 percent control)
23 | c1ccc(-c2nnsc2Oc2ccc(CCNc3ncnc4nccnc34)cc2)cc1 [Compound 58] | *** (*** = 80-100 percent control) | ** (** = 50-79 percent control)
24 | Cc1nnsc1Oc1ccc(CCNc2ncnc3nccnc23)cc1 [Compound 59] | *** (*** = 80-100 percent control) | * (* = 0-49 percent control)
25 | FC(F)(F)c1cccnc1Oc1ccc(CCNc2ncnc3nccnc23)cc1 [Compound 60] | *** (*** = 80-100 percent control) | *** (*** = 80-100 percent control)
26 | N#Cc1c(Cl)cccc1Oc1ccc(CCNc2ncnc3nccnc23)cc1 [Compound 61] | *** (*** = 80-100 percent control) | ** (** = 50-79 percent control)
27 | COc1ccc(CCNc2ncnc3nccnc23)c(F)c1 [Compound 62] | *** (*** = 80-100 percent control) | ** (** = 50-79 percent control)
28 | CON=C(C)c1ccnc(Oc2ccc(CCNc3ncnc4nccnc34)cc2)c1 [Compound 63] | *** (*** = 80-100 percent control) | * (* = 0-49 percent control)
29 | O=C(c1ccnc(Oc2ccc(CCNc3ncnc4nccnc34)cc2)c1)C1CC1 [Compound 64] | *** (*** = 80-100 percent control) | * (* = 0-49 percent control)
30 | CC(Nc1ncnc2nccnc12)c1ccc(O)cc1 (centres unmarked) [Compound 65, 4-[1-(Pteridin-4-ylamino)-ethyl]-phenol] | ** (** = 50-79 percent control) | ** (** = 50-79 percent control)
31 | Cc1cnc(Oc2ccc(CCNc3ncnc4nccnc34)cc2)s1 [Compound 66] | *** (*** = 80-100 percent control) | ** (** = 50-79 percent control)
32 | CC(Nc1ncnc2nccnc12)c1ccc(Oc2ccc(C(F)(F)F)cn2)cc1 (centres unmarked) [Compound 67] | *** (*** = 80-100 percent control) | *** (*** = 80-100 percent control)
33 | CC(Nc1ncnc2nccnc12)c1ccc(Oc2nccc(C(F)(F)F)n2)cc1 (centres unmarked) [Compound 68] | *** (*** = 80-100 percent control) | * (* = 0-49 percent control)
34 | Cc1cc(C(F)(F)F)cc(Oc2ccc(CCNc3ncnc4nccnc34)cc2)n1 [Compound 69] | *** (*** = 80-100 percent control) | ** (** = 50-79 percent control)
35 | Fc1cnc(C(F)(F)F)c(F)c1Oc1cccc(CCNc2ncnc3nccnc23)c1 [Compound 71] | *** (*** = 80-100 percent control) | ** (** = 50-79 percent control)
36 | Fc1cnc(C(F)(F)F)c(F)c1Oc1ccc(CCNc2ncnc3nccnc23)cc1 [Compound 72] | *** (*** = 80-100 percent control) | ** (** = 50-79 percent control)
37 | Oc1ccc(CCNc2ncnc3ncc(Cl)nc23)cc1 [Compound 73] | *** (*** = 80-100 percent control) | * (* = 0-49 percent control)
